According to PubChem BioAssay AID1347165 (National Center for Advancing Translational Sciences (NCATS), 2019):
About 5,700 (2.6%) of roughly 220,000 compounds were called active. The shares of active, inactive and inconclusive entries below differ from those in the screen. Calls come from the whole dose curve; as a rule, active = well fitted inhibition curve with a large enough effect; inconclusive = small, poorly fitted or top-dose-only effect; inactive = no such curve, though single readings can be large or run the other way. A potency beside an inconclusive call is a rough fit, not a confirmed value.

Target: Lysine-specific demethylase 5B (Homo sapiens) (UniProt Q9UGL1)
UniProt Q9UGL1, sequence (Q9UGL1 whole entry, looked up): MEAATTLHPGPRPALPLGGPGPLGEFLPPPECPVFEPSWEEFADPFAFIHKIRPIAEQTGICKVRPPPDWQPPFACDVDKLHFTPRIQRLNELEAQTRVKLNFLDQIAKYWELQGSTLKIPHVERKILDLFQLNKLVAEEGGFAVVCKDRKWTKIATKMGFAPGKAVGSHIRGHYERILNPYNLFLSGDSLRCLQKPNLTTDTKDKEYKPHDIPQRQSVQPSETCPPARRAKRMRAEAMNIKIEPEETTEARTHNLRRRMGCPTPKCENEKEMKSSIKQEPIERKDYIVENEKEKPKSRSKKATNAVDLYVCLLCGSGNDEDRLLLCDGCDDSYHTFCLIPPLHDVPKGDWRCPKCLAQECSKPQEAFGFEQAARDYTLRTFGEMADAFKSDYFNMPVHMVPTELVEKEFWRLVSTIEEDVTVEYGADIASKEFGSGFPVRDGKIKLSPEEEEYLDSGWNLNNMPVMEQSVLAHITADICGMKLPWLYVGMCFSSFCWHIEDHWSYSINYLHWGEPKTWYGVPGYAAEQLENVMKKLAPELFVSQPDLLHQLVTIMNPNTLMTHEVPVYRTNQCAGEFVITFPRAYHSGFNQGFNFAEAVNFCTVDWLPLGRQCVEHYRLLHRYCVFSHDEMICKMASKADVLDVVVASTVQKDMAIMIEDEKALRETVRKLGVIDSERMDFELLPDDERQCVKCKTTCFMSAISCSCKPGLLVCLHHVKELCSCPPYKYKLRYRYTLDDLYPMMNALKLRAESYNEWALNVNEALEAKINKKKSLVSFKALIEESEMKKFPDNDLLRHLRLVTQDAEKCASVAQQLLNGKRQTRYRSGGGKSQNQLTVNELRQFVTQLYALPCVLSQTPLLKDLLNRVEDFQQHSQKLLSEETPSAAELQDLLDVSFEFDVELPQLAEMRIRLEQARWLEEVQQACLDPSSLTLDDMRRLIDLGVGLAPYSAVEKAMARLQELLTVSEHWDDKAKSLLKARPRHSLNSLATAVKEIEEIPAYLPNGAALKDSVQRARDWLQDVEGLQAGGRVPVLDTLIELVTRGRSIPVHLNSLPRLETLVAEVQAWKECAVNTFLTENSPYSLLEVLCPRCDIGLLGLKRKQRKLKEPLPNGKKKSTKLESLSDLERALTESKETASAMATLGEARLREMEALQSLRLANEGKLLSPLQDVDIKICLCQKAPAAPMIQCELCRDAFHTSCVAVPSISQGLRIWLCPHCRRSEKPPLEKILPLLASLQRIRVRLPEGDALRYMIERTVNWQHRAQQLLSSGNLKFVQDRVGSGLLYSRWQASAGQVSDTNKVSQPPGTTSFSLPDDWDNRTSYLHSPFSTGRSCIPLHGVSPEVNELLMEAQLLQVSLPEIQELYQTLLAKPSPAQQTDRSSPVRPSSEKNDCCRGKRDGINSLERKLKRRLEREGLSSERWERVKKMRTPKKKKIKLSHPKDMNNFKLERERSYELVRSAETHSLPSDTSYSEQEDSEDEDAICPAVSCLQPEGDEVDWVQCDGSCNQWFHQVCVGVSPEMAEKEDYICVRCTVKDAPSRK
Test: Primary screen for KDM5B Histone Demethylases FDH-coupled qHTS; note: nearly all actives have a fitted effect of over 70% in size; for activity change, negative = inhibition: 0% is about no effect
Settings: FDH-coupled NADH fluorescence (FDH is formaldehyde dehydrogenase); activity change, negative = inhibition: at 57.7 µM (top of the series) unless noted
Method in brief: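 qHTS format, multiple compound concentrations. Buffer 50 mM HEPES pH 7.5/0.01% Tween-20; 200 nM KDM5BΔAP final; 10 min compound preincubation; substrate-mix levels 12.5 µM peptide, 25 µM α-KG, 0.25 mM NAD⁺; 30 min RT; ΔRFU.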
Potency is the fitted concentration of half-maximal effect; tags give direction and shape of the fitted curve.

SMILES | Potency | activity change, negative = inhibition
O=C(NCc1nnc2ccc(-c3ccccc3)nn12)c1ccncc1 | active: 28.2 µM | 
O=C(Cn1nnc2ccccc2c1=O)NC(=O)Nc1ccccc1F | inactive | 
Cc1ccccc1OCCSc1nnc(-c2cccs2)o1 | inconclusive: 28.2 µM [inhibitor, single point] | 
CCN1CCN(c2ccc(NC(=O)c3ccc(Cl)c(N4CCCC4=O)c3)cc2)CC1 | inconclusive: 11.2 µM [inhibitor, partial curve, poor fit] | 
CCCCCC1CCC(c2ccc(C#Cc3ccc(OC(F)F)cc3)cc2)CC1 (configuration not stated) | inactive | 
COc1ccc(-c2cc(C(=O)N(C)C)c3ccccc3n2)cc1 | inconclusive: 31.6 µM [inhibitor, partial curve, poor fit] | 
Cc1cccc(Oc2nc(-c3ccncc3)nc3ccccc23)c1C | inactive | 
CN1Cc2cccn2CC1CNC(=O)c1ccnn1C (configuration not stated) | active: 22.4 µM | 
Oc1cccc2c(N=Cc3ccc(F)c(F)c3)cccc12 | inconclusive: 20 µM [inhibitor, partial curve, poor fit] | 
Cc1noc(-c2ccc3c(c2)OCO3)c1C(=O)NCCSCc1ccco1 | inconclusive: 15.8 µM [inhibitor, partial curve, poor fit] | 
CC(=O)N1CCC(N2C[C@H](O)C[C@H]2c2nc(-c3ccc4c(c3)OCO4)no2)CC1 | inconclusive: 39.8 µM [inhibitor, partial curve] | 
CNC(=S)NNC(=O)c1ccccn1 | inconclusive: 14.1 µM [inhibitor, partial curve, poor fit] | 
CCN1CCN(CCNC(=O)c2ccc(N3CC4CC(C3)[C@H]3CCCC(=O)N3C4)nc2)CC1 (some centres not stated) | inconclusive: 39.8 µM [inhibitor, partial curve, poor fit] | 
Cn1ccc2c(C(=O)NCc3cccnc3)nc(-c3ccccc3C#N)cc21 | active: 12.6 µM | 
Cc1ccc(Cl)cc1NC(=O)CCn1cnc2ccccc2c1=O |  | inconclusive: -30.7% [inhibitor] [at 11.5 µM]
Cc1ccc(CN2C(=O)OC(c3cccc(NC(=O)c4cccs4)c3)C2C(=O)NCC(C)C)cc1 (configuration not stated) | inconclusive: 39.8 µM [inhibitor, single point] | 
CC(C)c1noc(-c2cccn3c(CNC(=O)c4ccc(C(C)(C)C)cc4)nnc23)n1 | inconclusive: 28.2 µM [inhibitor, partial curve, poor fit] | 
CCOCCCn1c(SCC(=O)Nc2ccccc2OC)nc2c(oc3ccccc32)c1=O |  | inconclusive: -33.8% [inhibitor]
COc1ccccc1C1=Nn2c(nc3sc(C(=O)Nc4ccccc4Cl)c(C)c3c2=O)SC1 | inconclusive: 2.24 µM [inhibitor, full curve, poor fit] | 
CC(NC(=O)c1c(O)nc2ccccn2c1=O)c1ccccc1 (configuration not stated) | inconclusive: 35.5 µM [inhibitor, partial curve, poor fit] | 
CCOc1ccccc1N1CC(c2nc3ccccc3n2CCCCOc2ccccc2)CC1=O (configuration not stated) | inconclusive: 28.2 µM [inhibitor, partial curve, poor fit] | 

SMILES | Potency | activity change, negative = inhibition
Cc1ccc(CNc2c(C)c(C)nc3nncn23)cc1 |  | inconclusive: -43.1% [inhibitor]
O=S(=O)(c1ccc2c(c1)CCO2)N1CCN(Cc2ccccc2)CC1 | inactive | 
COc1ccc(-c2cn3c(n2)sc2cc(C(=O)NCc4ccccc4)ccc23)cc1 | inconclusive: 3.16 µM [inhibitor, full curve, poor fit] | 
CCOc1c(Br)cc(/C=C/c2ncc(C(=O)O)s2)cc1OC | inconclusive: 28.2 µM [inhibitor, single point] | 
COCCCNC(=O)Cc1c(C)c2c(OC)cc(C)cc2oc1=O | inconclusive: 8.91 µM [inhibitor, full curve, poor fit] | 
O=C(CCn1c(=O)c2cccn2c2cccnc21)NCc1cccc(Br)c1 | inconclusive: 3.98 µM [inhibitor, partial curve, poor fit] | 
Cc1cc(C(=O)N2CCCN(Cc3ccncc3)C(c3ccccc3)CC(=O)NCC2)n(C)n1 (configuration not stated) | inconclusive: 35.5 µM [inhibitor, single point] | 
Cc1ccc2c(=O)cc(C(=O)Nc3ccc(S(=O)(=O)N4CCCC(C)C4)cc3)oc2c1C (configuration not stated) | inactive | 
COCC(=O)NC[C@H]1O[C@@H](CO)[C@@H](O)[C@H]1N1CCOCC1 | inconclusive: 35.5 µM [inhibitor, partial curve, poor fit] | 
CCOc1ccc(NC(=O)c2oc3ccccc3c2NC(=O)C(C)Oc2ccccc2)cc1 (configuration not stated) | inconclusive: 31.6 µM [inhibitor, partial curve, poor fit] | 
CCOc1ccc(CNC(=O)c2cccc(Nc3nc4ccccc4n4nnnc34)c2)cc1OC | inconclusive: 8.91 µM [inhibitor, partial curve, poor fit] | 
N#C/C(=C/c1ccc(OCc2ccccc2Cl)cc1)c1nc2ccccc2s1 | inactive | 
CCn1ncc(NC(=O)Cn2ncc3cc(-c4ccccc4F)ccc32)n1 | inconclusive: 31.6 µM [inhibitor, partial curve, poor fit] | 
CC1=C[C@@H](CO)[C@H](C(C)C)C[C@H]1CC(=O)NCc1ccc(F)cc1 | inactive | 
O=C(Nc1cccnc1N1CCCC1)N1CCN(c2cnccn2)CC1 | inconclusive: 20 µM [inhibitor, single point] | 
CC(C)(C)c1ccc(-c2nnc(SCC(=O)NCc3cccs3)n2Cc2ccco2)cc1 | inactive | 
Cn1cc(CN2CCOc3cc([S+](=O)([O-])Nc4ccccc4)ccc3C2)cn1 | inactive | 
COc1ccc(CC(=O)N[C@@H]2CN(c3ccncn3)C[C@H]2CN(C)C)cc1OC | inactive | 
O=C(NC1CCCCC1)N1CCC(N2CC(OCC3CC3)C23CCOCC3)CC1 (configuration not stated) | inactive | 
Oc1ccc(-c2cc3c(cn2)CN(Cc2ccccc2)CCN3)cc1F | inconclusive: 28.2 µM [inhibitor, partial curve] | 
Cc1c(C)c2cc(Cl)c(OC(C)C(=O)NCc3cccnc3)cc2oc1=O (configuration not stated) | inconclusive: 2 µM [inhibitor, full curve, poor fit] | 
